Experimental data published in PubChem BioAssay AID1963576 (National Center for Advancing Translational Sciences (NCATS), 2024).
Among all 46,000 compounds or so, about 60 (0.1%) were called active. Another 3% or so got no clear call; they are omitted. The call rests on the fitted dose curve; in most records, active means well fitted inhibition curve with a large enough effect; inconclusive means small, poorly fitted or top-dose-only effect; inactive means no such curve, though single readings can be large or run the other way. Some of the results follow.

Assay: Primary qHTS assay for Inhibitors of ovarian cancer metastasis using an organotypic tumor microenvironment (TME) model. Further: nearly all actives have a fitted effect of over 65% in size.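 On activity change, negative = inhibition: plate controls were DMSO wells for no effect and tomatine positive control wells for full effect.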
Conditions: SKOV3ip1-GFP adhesion/invasion on 3D omental model, fluorescence; series mostly up to 45.8 µM; activity change, negative = inhibition: at the top concentration
Summary of the method: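 A 3D layer of primary human omental fibroblasts, mesothelial cells, fibronectin and collagen I, grown 48 hr, received SKOV3ip1-GFP cells in serum-free medium plus compounds at 0.36-46 umol/L. After 2 hr RT and 16 hr 37 C, fixed adherent GFP cells were counted; normalized to DMSO and tomatine.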

Activity change, negative = inhibition, inactive:
CCN1C(C(=O)c2ccccc2)=C(OC(=O)c2ccc(OC)cc2)c2ccccc2S1(=O)=O 3.71%
CCCCCCCCCCCCCCCCCCCCCCO -9.32%
NCCc1cnc[nH]1 -23.8%
CCc1cccc(C)c1NC(=O)Cn1cc2c(n1)CCCC2 -0.908%
Cn1c(=O)c2c(-c3ccc(Br)cc3)n(CCc3ccccc3)cc2n(C)c1=O 43.4%
NS(=O)(=O)c1ccc(NC2=CC(=O)c3ccccc3C2=O)cc1 -12%
CCN(Cc1ccccc1)C(=O)CCc1c(C)nc2c(c(C)nn2-c2ccc(C)c(C)c2)c1C -1.32%
Cc1ccc(NC(=O)c2oc3ccc(S(=O)(=O)N4CCCCC4)cc3c2C)cc1Cl -11.1%
COc1ccc(C2CC(=O)N(CC(=O)Nc3cccc(C)c3C)c3ccccc3S2)cc1OC (stereo unspecified) 4.8%
Cc1ccc(C(=O)N2CCC(C(N)=O)CC2)cc1NC(=O)c1nsc2ccccc12 -7%
COc1ccc(CN2CCCN(CC(=O)Nc3ccc4c(c3)OCCO4)S2(=O)=O)cc1 -1.32%
Cc1nn(C)c2c1c(C(F)(F)F)cc(=O)n2CC(=O)N1CCC(C)CC1 1.4%
Cc1ccc(CSc2nc3cccnc3n2Cc2ccc(C(=O)NCCc3cccs3)cc2)cc1 -26.1%
CC1CCN(S(=O)(=O)c2cc(C(=O)N3CCN(c4ccccc4F)CC3)n(C)c2)CC1 28.2%
Cc1ccc(-c2noc(-c3nnn(CC(=O)Nc4cc(Cl)ccc4C)c3N)n2)cc1 2.39%
CCOC(=O)C1CCN(C(=O)c2nn(-c3ccc(OC)cc3)c(=O)c3c2c2ccccc2n3C)CC1 2.55%
COc1ccc(N(CC(=O)NCCc2ccc(Cl)cc2)S(=O)(=O)c2c(C)nn(C)c2C)cc1 46.5%
COc1ccc(CNC(=O)C(C)n2c(=O)cc(C)c3c(C)nn(-c4ccccc4)c32)cc1 (stereo unspecified) 2.8%
COc1ccc(NC(=O)c2oc3ccccc3c2NC(=O)Cc2cccs2)c(OC)c1 -0.659%
CCCCn1c(SCC(=O)NCc2ccc(C)cc2)nc2c(sc3ccccc32)c1=O 10.3%
CCC1CN(C(=O)C2CCN(S(=O)(=O)c3c(C)noc3/C=C/c3ccccc3F)CC2)c2cc(C)ccc2O1 (stereo unspecified) 10.1%
CC(=O)c1cccc(NC(=O)c2nc(-c3ccccc3)n(-c3ccccc3C)n2)c1 -1.07%
COc1ccc(C2c3cccn3CCN2S(=O)(=O)c2ccc([N+](=O)[O-])cc2)cc1 (stereo unspecified) -13.7%
CCN1CCN(Cc2c(O)ccc3cc(-c4ccc(OC)cc4)c(=O)oc23)CC1 6.69%
CCN1CCN(c2cc(C)c3cc(NC(=O)c4ccc(OC)c(OC)c4)ccc3n2)CC1 -0.0681%
Cc1nc2c(c(C)nn2-c2ccccc2)c(C)c1CCC(=O)NCc1ccccc1 -4.35%
NS(=O)(=O)c1cc2c(cc1Cl)NC(C(Cl)Cl)NS2(=O)=O (stereo unspecified) -1.61%
CCc1cccc(NC(=O)C2CCN(S(=O)(=O)c3cccc(-c4noc(C)n4)c3)CC2)c1 -8.06%
Cc1cc(C)c(NC(=O)Cn2c(=O)n(Cc3ccc(C(=O)NCc4ccco4)cc3)c(=O)c3sccc32)c(C)c1 -1.6%
Cc1ccn2cc(-c3ccc(C)c(NS(=O)(=O)c4ccc(Cl)cc4)c3)nc2c1 -3.87%
CN(C)CCNC(=O)c1ccc2c(c1)N(Cc1c(F)cccc1Cl)C(=O)c1ccccc1S2 -11.3%
CCOC(=O)Cn1c(=O)oc2cc(S(=O)(=O)N3CCN(c4cc(C)ccc4C)CC3)ccc21 16.4%
CCC(=O)N1CCc2cc(S(=O)(=O)NC(C(=O)Nc3cc(OC)cc(OC)c3)C(C)C)ccc21 (stereo unspecified) 2.21%
CCc1ccc(C(=O)NC2=NC(c3ccccc3F)CC(=O)N2)cc1 (stereo unspecified) -22.8%
Cn1cnc(S(=O)(=O)N2CCCC(C(=O)Nc3ccc(OC(F)(F)F)cc3)C2)c1 (stereo unspecified) 8.24%
O=C(Nc1ccccc1Br)N1CCC(CN2CCCC2)CC1 2.56%
Cc1ccc(OCC(=O)Nc2ccc(-c3nc4ccccc4o3)cc2)c(C)c1 1.29%
CCOc1ccc(CNC(=O)Cn2c(=O)c3cccn3c3ccccc32)cc1 -21.2%
Cc1c(Cl)ccc2sc(N3CCN(C(=O)CS(=O)(=O)c4ccccc4)CC3)nc12 -2.24%
COc1ccc(-c2cc(C(=O)Nc3cnn(Cc4ccc(F)cc4)c3)no2)cc1OC -0.123%
Cc1cc(F)ccc1NC(=O)c1c(C)oc2c1C1=NCCN1C=N2 5.21%
CCn1cc2nc(SCc3cccc(C(F)(F)F)c3)n(Cc3ccc(C)cc3)c(=O)c2n1 62.3%
COc1cc2c(cc1NC(=O)C(C)Oc1ccccc1)oc1ccccc12 (stereo unspecified) 11.5%
COc1ccccc1-n1c(=O)n(C)c2c(C(N)=O)nc(-c3cc(OC)c(OC)c(OC)c3)nc21 -5.24%
CCc1ccccc1NC(=O)CSc1nc2c(c(=O)[nH]1)CN(Cc1ccccc1OC)CC2 -5.8%
CN(C(=O)c1nn(C)c2c1CS(=O)(=O)c1ccccc1-2)c1cccc(Cl)c1 1.39%
Cc1ccc(C)c(Cn2c(=O)n(CCCC(=O)NCc3ccc4c(c3)OCO4)c(=O)c3sccc32)c1 -3.65%
CCC1CN(C(=O)Nc2cc(Cl)ccc2C(=O)OC)c2ccccc2S1 (stereo unspecified) 3.22%
COc1ccc(OC)c(NC(=O)COCc2cc(-c3ccc(F)cc3)on2)c1 7.31%
CCOC(=O)c1sc(N2C(=O)c3oc4ccc(F)cc4c(=O)c3C2c2ccc(O)cc2)nc1C (stereo unspecified) 2.3%

outcome, inactive:
COc1ccccc1CNC(=O)CCCn1c(=O)c2ccccc2n(Cc2ccc(C)cc2)c1=O
Cc1ccc(Sc2ccc(N3CCCC(C(=O)Nc4ccc(F)cc4F)C3)nn2)cc1 (stereo unspecified)
COCCN1CCN(Cc2ccc(C(=O)NC(C)C)cc2)C(=O)C1=O
Cc1ccc(S(=O)(=O)c2nc(-c3cccc(Cl)c3)oc2NCc2ccccc2)cc1
COC(=O)c1cc2oc3ccccc3c2n1CC(=O)Nc1ccc(C)cc1C
CCOC(=O)c1c(NC(=O)c2ccc(C)c(C)c2)sc2c1CCCCC2
CCCN1CCN(CCCNC(=O)c2c(C)nn(-c3ccc(F)cc3)c2-n2cccc2)CC1
O=C(Cc1c(C(=O)O)[nH]c2ccccc12)Nc1cccc(C(F)(F)F)c1
CCOc1ccc(OCC)c(NS(=O)(=O)c2ccc3c(c2)CCN3C(=O)C2CCC2)c1
Cc1cc(C)c2c(N)c(C(=O)Nc3ccccc3C(F)(F)F)sc2n1
CCCSc1ncc(Cl)c(C(=O)N2CCN(c3ccc(OC)cc3)CC2)n1
